Some of the results follow.

The subject of this experiment is PfAP2-HC AP2 domain (GST-tagged). The experiment is described as follows: gcPBM binding intensity (ln(normalized median fluorescence intensity)); higher = stronger DNA binding. An outline of the steps:
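An Agilent 4 × 180k array carrying primer-extended double-stranded 36-bp intergenic genomic probes and negative controls received GST-tagged P. falciparum DNA-binding domains expressed in E. coli, about 25 μg on average, for 1 h. The binding buffer contained 1× PBS, 1% milk, 0.2 mg/ml BSA, 0.5% salmon testes DNA and 0.03% Triton X-100. Binding intensity is the top Masliner-normalised natural-log median intensity across replicate spots of either probe orientation, read after Alexa488 anti-GST antibody staining and a 488 nm scan.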
For “CTCGATCAAGTGTATGCATGTACCAGTGAACAAAAA [TGCATGCA_site635]”, the “gcPBM binding intensity (ln)” value was 9.46.

For the sequence “ATATATTTAAAAAAATGTACAAATCATAAATGCAAG [XGTACX_site4230]”, the “gcPBM binding intensity (ln)” value was determined as 9.73.

“TATAATGTTGATGATAGTACGTATGAGTTCAAAAAA [XGTACX_site3651]”: the “gcPBM binding intensity (ln)” value turned out to be 9.71.

Turning to “AGAAATTAAATGTAAGCACACATAAATTATACACAT [CACACA_site9098]”, the “gcPBM binding intensity (ln)” value is 9.9.

For the sequence “AAAAAATTATACCAGTGTACTTTTTTGGTTTTTCTT [XGTACX_site2601]”, the “gcPBM binding intensity (ln)” value turned out to be 9.53.

As for “AACTCTTAGAATGACGGTACAGTATAATAGGTGAAC [XGTACX_site7163]”, the “gcPBM binding intensity (ln)” value was found to be 9.69.

For the sequence “ATATAATGAATTATTAGAAAATAAAATGAATAAAGT [CACACA_negctrl_site690]”, the “gcPBM binding intensity (ln)” value worked out at 9.87.

With “ATATATATATATAGTGCACACTTAAGAATATAAAGA [CACACA_site4771]”, the “gcPBM binding intensity (ln)” value was determined as 9.87.

For “TGTTATATAATTTAGCGTACAGGTTATAGGACGGAT [XGTACX_site8823]”, the “gcPBM binding intensity (ln)” value was found to be 9.76.

Regarding “AACTATTACTTTCTTTCACACATTTTTTTTTTTTTT [CACACA_site5355]”, the “gcPBM binding intensity (ln)” value stood at 9.75.

In the case of “ATCATATAAACATATTGTACTTAAATACATAATATT [XGTACX_site3800]”, the “gcPBM binding intensity (ln)” value was 9.67.

For “TTTATTTATTTATGTGGTACTTCAAAAATATATACT [XGTACX_site355]”, the “gcPBM binding intensity (ln)” value worked out at 9.62.

For the sequence “GGATACGCTTTTGTACCACTCCCCCTTTTGGGAATA [CACACA_negctrl_site1363]”, the “gcPBM binding intensity (ln)” value was 9.4.

For the sequence “CAAACCCACGGACACACACACACAAAAATGATTAAA [CACACA_site5365]”, the “gcPBM binding intensity (ln)” value worked out at 10.4.

Turning to “AAATTGGGTACAAATACACACACATATATATATTAA [CACACA_site8745]”, the “gcPBM binding intensity (ln)” value was 10.5.

As to ATAGATCCTAATGTTGTGCACATGTAAATTAATATA, the “gcPBM binding intensity (ln)” value is 9.71.

Take “TTTATACAATAAAATGCATGCAAGTATCTATTTTAT [TGCATGCA_site210]”: the “gcPBM binding intensity (ln)” value stood at 9.65.

Consider “TCAGATATATAGAATACACACATGGATATAAGAAAT [CACACA_site7831]”, for which the “gcPBM binding intensity (ln)” value was determined as 9.87.

Take “TTTTTGTAATATTATGATGTCATATATATATATATA [XGTACX_negctrl_site618]”: the “gcPBM binding intensity (ln)” value came to 9.6.

With “ATATTTTGTAACTATACACACATATATATATTATAA [CACACA_site3062]”, the “gcPBM binding intensity (ln)” value came out at 9.77.

Turning to “CAAAAGAATATATGTAGTACATGTTGTAGATAATAT [XGTACX_site1044]”, the “gcPBM binding intensity (ln)” value is 9.83.

Consider “CGCGAAGTAGCATTCACACACAGCAAAATATAAATA [CACACA_site7608]”, for which the “gcPBM binding intensity (ln)” value is 9.99.

Turning to “TATAATGAACATATGTGTACATATATTTTTTAAATT [XGTACX_site8736]”, the “gcPBM binding intensity (ln)” value came to 9.64.

For “ACCATATAAATAAACACACACACACCGATATATATA [CACACA_site5310]”, the “gcPBM binding intensity (ln)” value came out at 10.6.

“AAAAAACAAAAAAAAAAAAAAATAATACAATATAAT [CACACA_negctrl_site1630]”: the “gcPBM binding intensity (ln)” value came to 9.56.

Turning to “GCACAACATATATTATCACACACATATATATATATA [CACACA_site8619]”, the “gcPBM binding intensity (ln)” value is 10.6.

Consider “GTTTTTAGTATTTTTTGTACTTAATACATAGCCTTA [XGTACX_site7318]”, for which the “gcPBM binding intensity (ln)” value was found to be 9.61.

Consider “AATTGAAAAATATATAAGAAGAAATATATATATGTT [GTGCAC_negctrl_site97]”, for which the “gcPBM binding intensity (ln)” value turned out to be 9.71.

As for “AACACGCGCGGACACACACACACACCCACATATATA [CACACA_site5252]”, the “gcPBM binding intensity (ln)” value was found to be 11.3.

On to “TTAATATGAAATAAATGTACATAATACATAATAAAA [XGTACX_site6194]”, for which the “gcPBM binding intensity (ln)” value turned out to be 9.76.

Consider TTTTCTTCATAAATGCTGCACTGGTTTAAGCATGAT, for which the “gcPBM binding intensity (ln)” value came out at 9.3.

As to “AAATAGAAGAAATATGCACACATACATTGAAATGTT [CACACA_site7996]”, the “gcPBM binding intensity (ln)” value worked out at 9.78.

On to “TTTATTAATAAACACACACACACACCCAAAATAAAA [CACACA_site7966]”, for which the “gcPBM binding intensity (ln)” value was found to be 11.

“AAAGAAAAAAAAATTACACACATATATTATATATAT [CACACA_site3211]”: the “gcPBM binding intensity (ln)” value turned out to be 9.73.

“CCTTAATATTTTTGAAGTACATATTTATTTTACAAG [XGTACX_site3049]”: the “gcPBM binding intensity (ln)” value is 9.5.

Regarding “ATTTATATCTCCATATGTTCAAAACTTTCACAAATA [TGCATGCA_negctrl_site108]”, the “gcPBM binding intensity (ln)” value came to 9.3.

In the case of TATTAACAAATTTATGTGCACTGAGGACAAATATAT, the “gcPBM binding intensity (ln)” value stood at 9.73.

Take “AATATAAATTAATTTACACACTAAAAAATATATATA [CACACA_site3778]”: the “gcPBM binding intensity (ln)” value came to 9.77.

With “AAAATAAGTAATTACTAATATATAAATTAATAATTA [CACACA_negctrl_site1602]”, the “gcPBM binding intensity (ln)” value is 9.61.

In the case of “TTTTAATTAGCTAGACGTACAATAATATACAAATAT [XGTACX_site6068]”, the “gcPBM binding intensity (ln)” value was found to be 9.5.

As to “CATATGTAGGGAACAATATAATATGCTTTGAATATG [GTGCAC_negctrl_site524]”, the “gcPBM binding intensity (ln)” value stood at 9.57.

For “ATTTTTTTAAGATAAGAAAAATAAAGTGTGGATATT [XGTACX_negctrl_site476]”, the “gcPBM binding intensity (ln)” value is 9.39.

Consider “AGCACACAAAAAAAAAAAAAAAAAAAAAAAGGAATG [GTGCAC_negctrl_site73]”, for which the “gcPBM binding intensity (ln)” value worked out at 9.67.

Regarding “TATGTATTCATATGTTGTACATTATATATAATAAGT [XGTACX_site6589]”, the “gcPBM binding intensity (ln)” value is 9.68.

Consider “AAATCAGAACCTATTTGTACATATACAAAAATGATT [XGTACX_site2421]”, for which the “gcPBM binding intensity (ln)” value is 9.62.

These data come from the supplement of paper PMC11417369.
